Results published in article PMC7819943, “Rice protein-binding microarrays: a tool to detect cis-acting elements near promoter regions in rice”.
This is one part of the list.

Each sequence was assayed against T1, OsWOX13 (Oryza sativa, UniProt Q5QMM3 1-267) (assay: protein-binding microarray (RPBM); PBS, 2% BSA, 51.3 ng/ul salmon testes DNA, 50 uM zinc acetate, 200 nM TF, 25 C, 1 h; high values mean tight binding). Conditions: protein: recombinant; tags: N-terminal polyhistidine and DsRed monomer fusion (pET32a); label: CyDye5-dUTP incorporated in the synthesized complementary strand; 3' TTTTT single-stranded linker to array surface; dsDNA, one strand shown.
T1 sequence: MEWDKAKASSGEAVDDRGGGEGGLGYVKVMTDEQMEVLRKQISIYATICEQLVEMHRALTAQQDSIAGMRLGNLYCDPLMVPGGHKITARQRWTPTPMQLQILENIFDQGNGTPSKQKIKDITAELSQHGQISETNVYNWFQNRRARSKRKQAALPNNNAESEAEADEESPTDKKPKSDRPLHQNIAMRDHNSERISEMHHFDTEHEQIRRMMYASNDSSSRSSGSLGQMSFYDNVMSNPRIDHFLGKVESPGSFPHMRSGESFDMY
In short: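 For the binding signal, per-feature fluorescence intensity was read in arbitrary units on an Axon 4000B scanner. Before scanning, a 2% BSA-blocked custom Agilent array made double-stranded with Cy5-dUTP was washed after 1 h at 25 °C with 200 nM protein and 50 µM zinc acetate. The proteins were Ni–NTA-purified transcription factors with N-terminal polyhistidine and DsRed fusions, expressed in E. coli BL21-CodonPlus.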

Row | Sequence | binding signal
1 | GTTGATGGGATTAAATCCCGTTACATCGCCGAATGATAAGCGGAGTCACCTAGTGCAG | 21100 fluorescence intensity (a.u.)
2 | GAGCATGATTACTTAAATATTAGCTAATTCTTTCTTTAAACGGAGTCACCTAGTGCAG | 15500 fluorescence intensity (a.u.)
3 | TCCTGATTGCTTATGTAATTTGGAAGGAACAAAATAATAACGGAGTCACCTAGTGCAG | 9930 fluorescence intensity (a.u.)
4 | CTTAAAATCAACTTTTAAATTAAATTTTAAAATTCAAAGTCGGAGTCACCTAGTGCAG | 7070 fluorescence intensity (a.u.)
5 | GCTAGTAATTGTCTATACTATTAAACTTGCTCTAAGGGCACGGAGTCACCTAGTGCAG | 14000 fluorescence intensity (a.u.)
6 | ATGATTGAGCCGGGGTCTACGGTACGATTCCGGTACCAACCGGAGTCACCTAGTGCAG | 29400 fluorescence intensity (a.u.)
7 | CGATAACTATTTTCAGTTTATTTTCAGTTTATTTTGTTCTCGGAGTCACCTAGTGCAG | 7650 fluorescence intensity (a.u.)
8 | TGTTAATTTCTCCGTCTCGAAATAAGTAAAGTTTTGTGTTCGGAGTCACCTAGTGCAG | 28400 fluorescence intensity (a.u.)
9 | TAGTTTAATTTTGAGTAAATTTTAGGGTGTTTGGTTGTAGCGGAGTCACCTAGTGCAG | 9810 fluorescence intensity (a.u.)
10 | TTCTGACAAAGTAATCAGTTGGACATTTGGAACTGATTACCGGAGTCACCTAGTGCAG | 8300 fluorescence intensity (a.u.)
11 | ATTAATTACGCGTCACTTGCCCCATAAACGACACCGTCCACGGAGTCACCTAGTGCAG | 23400 fluorescence intensity (a.u.)
12 | CTCTTAATTCCGCACATTAAAATATGTAACCACTTCTATACGGAGTCACCTAGTGCAG | 3590 fluorescence intensity (a.u.)
13 | TTAAAACATAATTACATCACGATTGCACGATATTTACATCCGGAGTCACCTAGTGCAG | 11100 fluorescence intensity (a.u.)
14 | AATTTTGATTAATCTCGTATTGGGTTCTTATATGGAAACTCGGAGTCACCTAGTGCAG | 23800 fluorescence intensity (a.u.)
15 | CAGTAACAATTTAATCACTGTTATATTATTAGAATGAAATCGGAGTCACCTAGTGCAG | 11200 fluorescence intensity (a.u.)
16 | GGGACTCATTTAGATTGCAGACGGACCATAACTAGTCGTGCGGAGTCACCTAGTGCAG | 3730 fluorescence intensity (a.u.)
17 | AAGATTAGTACTAACCAATAACCATAGCCCATAGAGCTCGCGGAGTCACCTAGTGCAG | 5340 fluorescence intensity (a.u.)
18 | AGAATAATTAACCGTAAATGCGAGCAATTATGTCAAGTCTCGGAGTCACCTAGTGCAG | 20800 fluorescence intensity (a.u.)
19 | GGTGGAGGCGGGCGCGGTGGAGGCGGGGAGGAAGGGGAGCCGGAGTCACCTAGTGCAG | 6860 fluorescence intensity (a.u.)
20 | CCTGACAGGAGAATTCCCACAATGTTCAGATAACTACAAACGGAGTCACCTAGTGCAG | 17900 fluorescence intensity (a.u.)
21 | GTTAATTAGAAGTCTTAAGAGATGAAGAAGGGTGGCAATACGGAGTCACCTAGTGCAG | 21400 fluorescence intensity (a.u.)

Row | Sequence | binding signal
22 | TTAACTAAATTTATAGTAAAATTTACCAATATCTAAAATACGGAGTCACCTAGTGCAG | 20300 fluorescence intensity (a.u.)
23 | TTACTCCTAATCATCATCAAACGAAGCATCGTTTCCTGTGCGGAGTCACCTAGTGCAG | 4620 fluorescence intensity (a.u.)
24 | AGTGGCAATTTAATCAGTAAACTACATGTCTATAGCTCGCCGGAGTCACCTAGTGCAG | 10200 fluorescence intensity (a.u.)
25 | ACAAAATTTGACGACGAAATCTCTTCGTCACGGGGAGTCGCGGAGTCACCTAGTGCAG | 10900 fluorescence intensity (a.u.)
26 | CATGCTCACAATTTAATTAACAACAACCGAGGCACTCAAGCGGAGTCACCTAGTGCAG | 6310 fluorescence intensity (a.u.)
27 | GAAAATAATTGAAACCCTAGAATTTGAGGGGAATATCCCACGGAGTCACCTAGTGCAG | 22800 fluorescence intensity (a.u.)
28 | TATAATTGTTACTGTTAATTGAGGTGGGAAATACCAGGTGCGGAGTCACCTAGTGCAG | 53500 fluorescence intensity (a.u.)
29 | TGAGGATGTATGATTTGTTCACAATTTCAAAATGAGGGTACGGAGTCACCTAGTGCAG | 3170 fluorescence intensity (a.u.)
30 | ACATAACAAAGCCTGATTGGCACAGCAGGGAGGCTGCAACCGGAGTCACCTAGTGCAG | 27400 fluorescence intensity (a.u.)
31 | ACAATGATGTCAATTTCTTCTTAGGTAAGTCGTGTCGGCTCGGAGTCACCTAGTGCAG | 13300 fluorescence intensity (a.u.)
32 | ATGATGATATCTTGATGACTTGATGTGTTATATATTGTTTCGGAGTCACCTAGTGCAG | 12100 fluorescence intensity (a.u.)
33 | TGTAGTTTGGTTAATTACACAGGCATGAACGAATCCGTTCCGGAGTCACCTAGTGCAG | 3440 fluorescence intensity (a.u.)
34 | TAATGATTTACAACACTATGACCACATGGTTAACCTCGTGCGGAGTCACCTAGTGCAG | 25600 fluorescence intensity (a.u.)
35 | AGCCAATCAGAATCCAAATAAAACATTCTTGCAGCAGGCGCGGAGTCACCTAGTGCAG | 15900 fluorescence intensity (a.u.)
36 | CGACAATTGATATAGCCCATAATAAAATAATTTGAACATTCGGAGTCACCTAGTGCAG | 8020 fluorescence intensity (a.u.)
37 | GGAACAAATTGCATATATCCACGGAAGACTCAACAACAGCCGGAGTCACCTAGTGCAG | 3620 fluorescence intensity (a.u.)
38 | CTGCAAATTAGAAGTTCAAGCACACATTTGTAAGGTGCAACGGAGTCACCTAGTGCAG | 4650 fluorescence intensity (a.u.)
39 | GGAAATTTGTGGTATCCCCTGCATTGAAGAAGAAAATCACCGGAGTCACCTAGTGCAG | 3180 fluorescence intensity (a.u.)
40 | GTGGGTGAAATTTGGGTTAACATCATGACATGTGTTATGACGGAGTCACCTAGTGCAG | 3310 fluorescence intensity (a.u.)
41 | TCTTCCCCATGATTATGTCAGAGCTATCAATGCACAGATGCGGAGTCACCTAGTGCAG | 7180 fluorescence intensity (a.u.)
42 | TGCAAATTGTGCTTTTCTATTCTGTTGTGTCTTCTGCTTTCGGAGTCACCTAGTGCAG | 6060 fluorescence intensity (a.u.)
